# Reference: PubChem BioAssay AID463173 (ICCB-Longwood Screening Facility, Harvard Medical School, 2010)
# Screen size: about 52,000 compounds; about 4,300 (8.3%) were called active. Rule as the data show it: active = survival mostly below about 52% (no sharp cut-off); inactive = mostly above about 56%. Some of the results follow.
# Test system: DeltatarO mutant
# Assay: growth inhibition of S. aureus wild type versus tarO mutant, primary screen, teichoic acid synthesis inhibitors, RN4220, OD600 (AID 463173)
# Settings: OD600, 18 h, active compounds read low, screened at 18.75 µg/mL (by protocol)
row,SMILES,survival
1,COc1ccc(-c2c3c(=O)n(C)c(=O)n(C)c3c3n2-c2ccccc2NC3c2ccco2)cc1 (stereo not drawn),inactive: 50%
2,Cc1ccc(S(=O)(=O)N(C)c2c(C)ccc(S(=O)(=O)n3nc(C)cc3C)c2C)cc1,inactive: 96%
3,CCOC(=O)c1[nH]c(C)c(CCC(=O)Nc2cc(C)ccc2OC)c1C,inactive: 89%
4,O=C(COc1ccccc1)Nc1ccc2nc(SCCOc3ccccc3)sc2c1,inactive: 85%
5,CCCc1nnc(SCC(=O)N2CCCC2)n1CCOC,inactive: 87%
6,CCOC(=O)c1c(C)[nH]c(C)c1S(=O)(=O)N(C)CC(=O)Nc1ccc(C)cc1C,inactive: 95%
7,Cc1ccc(NC(=O)Cn2c(=O)n(CC3CCCO3)c(=O)c3ccccc32)cc1 (stereo not drawn),inactive: 102%
8,Cc1cc(C)c2oc(-c3cccc(NC(=O)COc4ccc([N+](=O)[O-])cc4)c3)nc2c1,inactive: 63%
9,Cc1ccc(Cl)cc1N1CCN(C(=O)c2ccc(CS(=O)(=O)c3ccccc3C)o2)CC1,inactive: 50%
10,COc1cc(C2CC(=O)Oc3c2c(=O)n(C)c2ccccc32)ccc1O (stereo not drawn),inactive: 58%
11,COc1ccc(C(=O)NC2(C(F)(F)F)C(=O)Nc3c2c(=O)[nH]c(=O)n3CCc2ccc(OC)c(OC)c2)cc1 (stereo not drawn),inactive: 79%
12,O=C(CS(=O)(=O)c1cccc2nsnc12)N1CCN(c2ccc(F)cc2)CC1,inactive: 69%
13,CC(=O)c1ccc(NC(=O)Cn2c(=O)nc(-c3ccccc3)c3ccccc32)cc1,inactive: 101%
14,COc1cc(NC(=O)COCc2cc(-c3ccc4c(c3)OCO4)on2)c(OC)cc1Cl,inactive: 103%
15,CCOc1ccc(C(=O)c2cn(CC(=O)Nc3ccc(C)c(Cl)c3)c3ccc(OCC)cc3c2=O)cc1,inactive: 72%
16,CCCCN(CC)CCCNC(=O)c1ccc2c(c1)N(Cc1ccc(C)cc1)C(=O)c1ccccc1S2,inactive: 94%
17,CCCCC(=O)OCc1cc(=O)n2nc(C3CC3)sc2n1,inactive: 102%
18,O=C(NC1(C(F)(F)F)N=C(c2ccccc2)N(Cc2ccccc2)C1=O)c1ccc(F)cc1 (stereo not drawn),inactive: 67%
19,Cc1cc(-c2ccc(C)c(S(=O)(=O)Nc3ccc(C)c(N(C)C)c3)c2)on1,inactive: 99%
20,CCOc1ccc(CCNC(=O)c2cc3n(n2)CCCN(Cc2ccc(C)cc2)C3=O)cc1OCC,inactive: 112%
21,COc1ccc(-c2nnn(CC(=O)N(Cc3ccco3)C(C(=O)NCC3CCCO3)c3ccco3)n2)cc1 (stereo not drawn),inactive: 89%
22,Cc1nnc(N2CCCC(C(=O)Nc3cc(F)ccc3F)C2)c2nn(-c3ccccc3)c(C)c12 (stereo not drawn),inactive: 83%

row,SMILES,survival
1,CCCN1CCN(c2ncnc3sc(C(=O)Nc4ccc(OC(F)(F)F)cc4)c(C)c23)CC1,inactive: 75%
2,CC1CCN(c2nc3ccccc3nc2SCC(=O)Nc2ccccc2C(C)C)CC1,active: -1%
3,O=c1c2sc3ccccc3c2n(Cc2cccc(Cl)c2)c(=O)n1Cc1ccc(F)cc1,active: 68%
4,Cc1ccccc1CN1C(=O)C(O)(c2c[nH]c3ccccc23)c2cc(Cl)ccc21 (stereo not drawn),active: -2%
5,COc1cccc(CNC(=O)C2CCCN(c3nn4cc(-c5ccc(C)cc5)nc4s3)C2)c1 (stereo not drawn),inactive: 95%
6,O=C(c1ccc2c(c1)N(Cc1ccccc1)C(=O)c1ccccc1S2(=O)=O)N1CCC(Cc2ccccc2)CC1,inactive: 87%
7,Cc1cc(C)c(NC(=O)Cn2nnc3sc4c(c3c2=O)CCC(C(C)(C)C)C4)c(C)c1 (stereo not drawn),inactive: 49%
8,COc1cc(C2c3c(-c4ccccc4O)n[nH]c3C(=O)N2Cc2ccncc2)cc(OC)c1OC (stereo not drawn),inactive: 82%
9,N#Cc1c(NC(=O)c2ccco2)sc2c1CCCC2,inactive: 98%
10,CCCCN1C(C(=O)c2ccccc2)=C(OC(=O)CC)c2ccccc2S1(=O)=O,active: -4%
11,Cc1nc2cc3ccccc3cc2c(=O)[nH]1,active: 47%
12,C/C(=N\NC(=O)C(F)(F)F)c1ccccc1O,inactive: 101%
13,Cn1cnc(S(=O)(=O)N2CCC(C(=O)Nc3ccc(OC(F)(F)F)cc3)CC2)c1,inactive: 92%
14,CCN(CC)c1cc(NC2CCCCC2)c2c3c(onc13)-c1ccccc1C2=O,active: 1%
15,CC1CCN(S(=O)(=O)c2ccc3c(c2)N(CC(=O)N(C)Cc2ccccc2)C(=O)CO3)CC1,inactive: 70%
16,COc1ccccc1N1CCN(c2c3c(nc4nncn24)CCC3)CC1,inactive: 73%
17,CC(C)(C)NC(=O)Cn1cc(S(=O)(=O)Cc2ccccc2Cl)c2ccccc21,inactive: 77%
18,Cc1cccc(-n2c(=O)c3c(c4cc(C)ccc4n3C)n(CC(=O)Nc3ccc(C)c(C)c3)c2=O)c1,inactive: 81%
19,Cc1nnc(SCCNS(=O)(=O)c2ccccc2)s1,inactive: 81%
20,N#C/C(=C\Nc1ccccc1O)c1nc2ccccc2o1,active: 1%
21,COC(=O)c1sccc1S(=O)(=O)N(CC(=O)NCc1ccc(F)cc1)c1ccccc1,inactive: 73%
22,Cc1cccc(NC(=O)Cn2c(=O)n(Cc3nc(-c4ccccc4)no3)c(=O)c3ccccc32)c1,inactive: 94%

row,SMILES,survival
1,COc1ccc(CNC(=O)C2CCN(C(=O)N3CCOc4ccc(C)cc43)CC2)cc1,inactive: 85%
2,CC1CCCN(C(=O)c2ccc(CSc3nc4ccncc4n3Cc3ccccc3)cc2)C1 (stereo not drawn),inactive: 101%
3,O=C(NCc1ccc(Cl)cc1)c1cc2cccc3c2n1CCS3,inactive: 83%
4,COc1ccc(NC(=O)N2CCN(Cc3nc4ccc(C)cc4o3)CC2)cc1OC,inactive: 82%
5,CCCCNC(=O)CN1CCN(c2ccc(NC(=O)c3ccc(OC)cc3)cc2C(=O)O)CC1,inactive: 85%
6,CN(C)c1ccc(-c2nnc(-c3cccnc3)o2)cc1,inactive: 103%
7,COc1ccc(-c2c(C#N)c(SCC(=O)Nc3ccc(C)c(C)c3)nc(C)c2C(=O)Nc2ccccc2)cc1OC,inactive: 75%
8,Cc1ccc(N(C)S(=O)(=O)c2nnc(NC(=O)c3ccco3)s2)cc1,inactive: 57%
9,C=C(C)CC1N(CCc2ccccc2)C(=O)C2C(C(=O)O)C3C=CC21O3 (stereo not drawn),inactive: 108%
10,COc1ccc(C)cc1NS(=O)(=O)c1ccc2c(c1)CCCN2C(C)=O,inactive: 135%
11,CCOC(=O)Cn1c(=N)n(CCOc2ccc(OC)cc2)c2ccccc21,active: 43%
12,COc1ccc(-c2nc(SCC(=O)NCC3CCCO3)c(-c3ccc(C)cc3)[nH]2)cc1OC (stereo not drawn),inactive: 66%
13,COc1cccc(CNC(=O)Cc2c(C)c3cc4c(C)coc4cc3oc2=O)c1,inactive: 61%
14,COc1cccc(NC(=O)c2csc3c2CCCCC3)c1,active: 37%
15,CCc1ccc(NC(=O)N2CCN(c3nnc(C)c4c(C)n(-c5ccc(Cl)cc5)nc34)CC2)cc1,inactive: 117%
16,COCCn1c(CCC(=O)Nc2ccc(OC)c(OC)c2)nc2cccnc21,inactive: 94%
17,O=C(NCc1ccccc1Cl)c1cc(-c2ccccc2)n[nH]1,inactive: 95%
18,O=C(CS(=O)(=O)c1nc(-c2ccc(Cl)cc2)cn1-c1ccccc1)Nc1cccc(Cl)c1,inactive: 68%
19,O=C(Cn1c2ncccc2c(=O)n1-c1ccccc1)NCc1ccccc1,inactive: 67%
20,Cc1ccc(NC(=O)CSc2nc(C)cc(C)c2C#N)cc1,inactive: 94%
21,COc1cccc(C(=O)CS)c1,inactive: 100%
22,Cc1ccc(NC(=O)c2ccc(F)c(S(=O)(=O)NCCc3ccccc3)c2)cc1F,inactive: 97%

row,SMILES,survival
1,CCOc1ccc(NC(=O)CSc2nc(-c3ccccc3)c3cc(OCC)ccc3n2)cc1,inactive: 73%
2,CN1C(=O)c2ccccc2N(C)C1c1ccc(F)cc1 (stereo not drawn),inactive: 96%
3,O=C(NCc1ccccc1Cl)C(=O)NCC(c1ccc2c(c1)OCO2)N1CCOCC1 (stereo not drawn),inactive: 83%
4,COc1ccc(CNC(=O)c2cnc3sc4cc(OC)ccc4n3c2=O)cc1,inactive: 77%
5,CCC(CC)C(=O)N1CCc2cc(OC)c(OC)cc2C1COc1ccc2c(C)cc(=O)oc2c1 (stereo not drawn),inactive: 83%
6,O=C(CSc1nc2ccccc2c(=O)n1Cc1ccco1)OC1CCCCC1,inactive: 71%
7,O=C(c1cc(S(=O)(=O)N2CCCC2)c[nH]1)N1CCN(c2cccc(Cl)c2)CC1,inactive: 98%
8,CCOc1ccc2nc(N(Cc3cccnc3)C(=O)c3ccco3)sc2c1,inactive: 88%
9,CN(CC(=O)N1CCCC1=O)Cc1ccccc1,inactive: 64%
10,Cc1ccc(CNCc2ccc3c(c2)n(C)c(=O)n3C)cc1,inactive: 92%
11,CCN1C(=O)SC(CC(=O)O)C1=O (stereo not drawn),inactive: 88%
12,O=C(CCNS(=O)(=O)c1ccc(Br)s1)Nc1ccc(Br)cc1,active: 40%
13,CCN1C(=O)c2ccccc2Sc2ccc(NC(=O)Cc3ccc(OC)c(OC)c3)cc21,inactive: 80%
14,COc1ccc2c(c1)c(=O)c(S(=O)(=O)c1ccc(F)cc1)cn2CC(=O)Nc1ccc(C)cc1C,inactive: 82%
15,COc1cc(NS(=O)(=O)c2ccc(NC(=O)COc3ccc(Cl)cc3Cl)cc2)nc(OC)n1,inactive: 77%
16,CCOc1cccc(CC(=O)NCc2ccc3c(c2)CCN3C(=O)c2cccc(C)c2)c1OCC,inactive: 54%
17,COc1ccc(CN(C(=O)Nc2cc(C)ccc2C)C2CCN(C(C)=O)CC2)cc1,inactive: 87%
18,COc1ccc(C2C(C(=O)Nc3cccnc3)=C(C)Nc3nc(-c4ccc(OC)c(OC)c4)nn32)cc1 (stereo not drawn),inactive: 150%
19,O=C(Nc1cc(Cl)ccc1O)c1cc(-c2ccc3c(c2)OCO3)on1,inactive: 58%
20,CCOC(=O)c1c(C)[nH]c(CCC(=O)NCc2cc(Br)ccc2OC)c1C,inactive: 115%
21,Cc1c(C(=O)N2CCCC2)oc2c1-c1nn(CC(=O)NCc3ccccc3F)cc1CC2,inactive: 75%
22,CCCSc1ncc(Cl)c(C(=O)NCc2ccc(C)cc2)n1,inactive: 57%
